Data as given in the RNAGym collection of RNA variant scans (doi:10.7554/elife.90254).
Read counts are not given, so values of variants with three or more changes are uncertain.

B1: OR4K15 (parent)
chain: GUUAACGGUCAUAGGCCAUGGAAACUAGGAGCACCAUUUCGCUGCCAGUGAAGAAAUGAACAAAGAAAAUCUGGGCCAGGCAGGCAUCAAAAGAAAUAGUCUUGCGCUCAACCAGAAAGUCUGUAAUCAUUUUAAGGGUA

Variants of: B1
Experiment: self-cleavage, relative activity (ratio to wild type); higher = more cleavage; in vitro, sequencing; the parent is a self-cleaving ribozyme

Question: Which self-cleavage does the source give for U3C C35U U38A A51U here?
Answer: 0.93

Question: With U2C U38C A96G as the variant, how does the self-cleavage read?
Answer: 1.78

Question: For A4G A67G A69G, which self-cleavage is on record?
Answer: 0.58

Question: With A4G U38C A82G as the variant, how does the self-cleavage read?
Answer: 1.02

Question: With U2C U39C U120C as the variant, how does the self-cleavage read?
Answer: 0.7

Question: For U2C U9C A33C U87A, which self-cleavage is on record?
Answer: 1.48

Question: For U2C G14U A54G A118G, which self-cleavage is on record?
Answer: 0.11

Question: For U3C A23G A59G, which self-cleavage is on record?
Answer: 1.29

Question: With A4C A13G A36G as the variant, how does the self-cleavage read?
Answer: 1.26

Question: Which self-cleavage does the source give for U3C A23U A24C A94G here?
Answer: 1.17

Question: For U2C U3C A18U A22G A92G, which self-cleavage is on record?
Answer: 0.41

Question: For U3C U43C A118G, which self-cleavage is on record?
Answer: 0.87

Question: Which self-cleavage does the source give for A4G A22U A69U U120G here?
Answer: 1.88

Question: For A4G A13G A114U, which self-cleavage is on record?
Answer: 0.21

Question: For U3A A69U U97C A98U, which self-cleavage is on record?
Answer: 0.35

Question: Which self-cleavage does the source give for U3A A13G A94G here?
Answer: 0.76

Question: For U2C U9A A92G U108C, which self-cleavage is on record?
Answer: 0.08

Question: Which self-cleavage does the source give for U2C U102C U132C here?
Answer: 1.91

Question: Which self-cleavage does the source give for U2C U43A A126G here?
Answer: 0.93

Question: For A4G A52G U100C, which self-cleavage is on record?
Answer: 1.55

Question: With U3C A51G A62G U131C as the variant, how does the self-cleavage read?
Answer: 0.5

Question: With U2C U9C A24G C45G A117G as the variant, how does the self-cleavage read?
Answer: 1.56

Question: With U2C U37C A51G as the variant, how does the self-cleavage read?
Answer: 0.86

Question: With U2C U3C U39C as the variant, how does the self-cleavage read?
Answer: 1.03

Question: With U3A A18G U70G U102C as the variant, how does the self-cleavage read?
Answer: 1.41

Question: For A4G A30G A54G U87A A135G, which self-cleavage is on record?
Answer: 0.84

Question: Which self-cleavage does the source give for A4G U19C U122C here?
Answer: 0.88

Question: For U3C G31U U38C A62G A69U C107U, which self-cleavage is on record?
Answer: 0.08

Question: Which self-cleavage does the source give for U2C U12C A23U A66U U97A A116G here?
Answer: 0.9

Question: With U2C U9C A56G A68G as the variant, how does the self-cleavage read?
Answer: 0.55

Question: With U2C U49A A78U A96G A116G A126U as the variant, how does the self-cleavage read?
Answer: 0.11

Question: With U3C A54G A62G A86G as the variant, how does the self-cleavage read?
Answer: 1.08

Question: Which self-cleavage does the source give for U2C U12C A27U here?
Answer: 1.1

Question: For U3A U70C A89G A96U U102C, which self-cleavage is on record?
Answer: 0.56

Question: For U2C U38C A56G, which self-cleavage is on record?
Answer: 1.2

Question: Which self-cleavage does the source give for A4G A13U C32U U72C here?
Answer: 0.39

Question: With A4G A66G U108A as the variant, how does the self-cleavage read?
Answer: 0

Question: With U3A U39C U43A A59G A126C as the variant, how does the self-cleavage read?
Answer: 0.62

Question: With U2C U9C A11C as the variant, how does the self-cleavage read?
Answer: 0.36

Question: With U2C G8U A47U A114G as the variant, how does the self-cleavage read?
Answer: 0.3

Question: With U2C U19C U39A U49C G119A as the variant, how does the self-cleavage read?
Answer: 1.36

Question: With U3C A27G U38A C77U as the variant, how does the self-cleavage read?
Answer: 0.43

Question: Which self-cleavage does the source give for A4U U49C A126C here?
Answer: 1.06

Question: With A4U A90G A91G A118G as the variant, how does the self-cleavage read?
Answer: 0.74

Question: With U3C A13G A92G U124A A126G as the variant, how does the self-cleavage read?
Answer: 0.51

Question: With A5C G74A U87C as the variant, how does the self-cleavage read?
Answer: 0.19

Question: Which self-cleavage does the source give for A4G A90G C109U here?
Answer: 0.71

Question: Which self-cleavage does the source give for A4G A62G U70C here?
Answer: 1.08

Question: For U3C A67G U131C, which self-cleavage is on record?
Answer: 0.87

Question: For A4G A23G U43C A82G, which self-cleavage is on record?
Answer: 0.5

Question: Which self-cleavage does the source give for A5C U9A A30G A64G A116G here?
Answer: 0.5

Question: For U3C U49A A90U, which self-cleavage is on record?
Answer: 0.91

Question: Which self-cleavage does the source give for U3C U12A A89U A98G U120C A126G here?
Answer: 0.05

Question: With A4U A5G C46U A62U as the variant, how does the self-cleavage read?
Answer: 0.85

Question: With U3C A82U A111G as the variant, how does the self-cleavage read?
Answer: 0.08

Question: For U2C U3A A64G A96G, which self-cleavage is on record?
Answer: 1.47

Question: Which self-cleavage does the source give for U2G U12C U103C here?
Answer: 0.17

Question: Which self-cleavage does the source give for U3C A68C G74A here?
Answer: 0.31

Question: For U3C A91U A92G, which self-cleavage is on record?
Answer: 1.14

Question: Which self-cleavage does the source give for U3C A96G U103C here?
Answer: 1.04

Question: For A4G U49C A59G A67G A116U, which self-cleavage is on record?
Answer: 0.17

Question: With U3C U57A A82G A92G U132C as the variant, how does the self-cleavage read?
Answer: 0.33

Question: Which self-cleavage does the source give for U2C G75A U120A here?
Answer: 0.09

Question: Which self-cleavage does the source give for A5G A11G U19C A30G A66G A67G A69G here?
Answer: 1.09

Question: Which self-cleavage does the source give for U2C G29A A95G U97C A98G here?
Answer: 0.8

Question: With U2C U43G A47G as the variant, how does the self-cleavage read?
Answer: 0.6

Question: With U3C A30U A52G as the variant, how does the self-cleavage read?
Answer: 1.77

Question: For A5C A13G A78U A110G A118U, which self-cleavage is on record?
Answer: 0.07

Question: With U3A U97C A116G U131A as the variant, how does the self-cleavage read?
Answer: 0.37

Question: For A4G U43C A64G, which self-cleavage is on record?
Answer: 0.36

Question: With U3C U26C A90G A117G as the variant, how does the self-cleavage read?
Answer: 0.68

Question: For U2C U9C A23G A52G, which self-cleavage is on record?
Answer: 0.91

Question: With U3C C17A A95C A126G as the variant, how does the self-cleavage read?
Answer: 0.82

Question: For U3A A54U U108C A114G, which self-cleavage is on record?
Answer: 0

Question: For U3A U72C U124C, which self-cleavage is on record?
Answer: 0.09

Question: With U3C U122C U130C U132C as the variant, how does the self-cleavage read?
Answer: 0.57

Question: With U3C A52G A55G A116G A129G as the variant, how does the self-cleavage read?
Answer: 0.58

Question: For A4G A23G A24G C40U A54G A60G A82G U122C U131C, which self-cleavage is on record?
Answer: 0.33

Question: Which self-cleavage does the source give for U2C U49A A52G U122G here?
Answer: 2.32

Question: Which self-cleavage does the source give for U3C A52G G83A A94G U97C here?
Answer: 1.37

Question: For A4C U37C A51G A60G U132C, which self-cleavage is on record?
Answer: 1.24

Question: For U3C A96G U122C U131A, which self-cleavage is on record?
Answer: 0.99

Question: With A4G A33G U38C U57A as the variant, how does the self-cleavage read?
Answer: 1.14

Question: With A4G A11U A78G as the variant, how does the self-cleavage read?
Answer: 0.27
